Experimental findings from article PMC4336329 (PLoS ONE, 2015) are described below.

Out of some 310,000 compounds screened, about 2,200 (0.71%) showed an effect of 50% or more. The effect is printed as a negative number. The list shows a part of the results.

The target of the test is human ether-à-go-go-related gene (hERG) potassium channel (human, UniProt Q12809). The test is described as follows: primary screen, population patch clamp on CHO cells stably expressing hERG.
Sequence of human ether-à-go-go-related gene (hERG) potassium channel (Q12809 whole entry, looked up): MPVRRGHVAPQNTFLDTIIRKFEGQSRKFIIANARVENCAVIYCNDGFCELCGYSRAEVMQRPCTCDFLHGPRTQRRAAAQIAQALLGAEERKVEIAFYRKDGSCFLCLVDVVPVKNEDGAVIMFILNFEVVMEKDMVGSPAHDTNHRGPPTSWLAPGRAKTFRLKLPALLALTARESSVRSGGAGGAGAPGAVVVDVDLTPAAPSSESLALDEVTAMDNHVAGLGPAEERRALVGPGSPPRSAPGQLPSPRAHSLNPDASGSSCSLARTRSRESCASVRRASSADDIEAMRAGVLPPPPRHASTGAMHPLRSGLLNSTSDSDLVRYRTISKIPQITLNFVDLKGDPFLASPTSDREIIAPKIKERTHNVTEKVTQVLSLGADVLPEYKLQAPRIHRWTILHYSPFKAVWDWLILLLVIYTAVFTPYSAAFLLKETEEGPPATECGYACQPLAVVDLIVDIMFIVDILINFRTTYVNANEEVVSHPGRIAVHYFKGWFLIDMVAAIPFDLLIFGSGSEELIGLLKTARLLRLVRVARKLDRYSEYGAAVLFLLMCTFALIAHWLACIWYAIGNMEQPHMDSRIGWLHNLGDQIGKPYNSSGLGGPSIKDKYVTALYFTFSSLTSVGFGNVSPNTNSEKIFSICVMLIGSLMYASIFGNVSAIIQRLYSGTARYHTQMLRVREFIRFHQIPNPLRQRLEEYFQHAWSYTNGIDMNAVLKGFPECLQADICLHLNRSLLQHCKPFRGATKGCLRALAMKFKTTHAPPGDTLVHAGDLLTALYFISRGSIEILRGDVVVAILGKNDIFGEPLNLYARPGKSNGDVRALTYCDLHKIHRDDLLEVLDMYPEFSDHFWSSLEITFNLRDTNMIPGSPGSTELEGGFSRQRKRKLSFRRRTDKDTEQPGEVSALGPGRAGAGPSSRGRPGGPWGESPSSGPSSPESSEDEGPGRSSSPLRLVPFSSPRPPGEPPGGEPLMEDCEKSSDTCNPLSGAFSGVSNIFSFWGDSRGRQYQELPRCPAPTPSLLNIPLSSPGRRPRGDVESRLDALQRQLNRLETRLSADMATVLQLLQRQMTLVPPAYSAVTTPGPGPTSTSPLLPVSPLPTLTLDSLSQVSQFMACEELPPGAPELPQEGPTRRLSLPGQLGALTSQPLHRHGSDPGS
In the case of `Cc1nnc(NC(=O)C2COc3ccccc3O2)s1` (stereo not shown), the “hERG current change (%, negative = inhibition) at 1uM” value was determined as 5.45%. Under `CCOC(=O)CCc1c(C)c2ccc(OCC(=O)N3CCOCC3)c(C)c2oc1=O` stands -6.26%. Under `Cc1ccc(S(=O)(=O)Nc2ccccc2F)cc1C(=O)OC(C)C(=O)N1CCOCC1` (stereo not shown) stands -2.56%; under `NC(=O)c1sc2nc(N3CCCCC3)c3c(c2c1N)CCCC3`, 4.86%; under `COc1ccc(CCN2C(=O)c3[nH]nc(-c4ccccc4O)c3C2c2ccc(C)cc2)cc1OC` (stereo not shown), 5.82%. With `Cl.NCCCCc1cn(CC(=O)N2CCNCC2)nn1`, the “hERG current change (%, negative = inhibition) at 1uM” value was 13.4%. Next, `CC(C)Cc1cc(C(=O)Nc2cc(Br)ccc2O)no1`: 0.505%; `COc1ccccc1C(O)(C(=O)NNc1ccccc1C)c1ccccc1OC`: 32.6%. As for `CCc1n[nH]c(=S)n1/N=C/c1ccc(-c2ccc(Br)cc2)o1`, the “hERG current change (%, negative = inhibition) at 1uM” value amounted to 12.5%. Under `O=C1NC(=O)/C(=C\c2ccc(Cl)nc2)S1` stands 12.5%; under `O=c1[nH]c(=O)n(CCOc2ccc(Cl)cc2)cc1Br`, 13.1%.

On to `COc1ccccc1NC(=O)CSc1nncn1-c1cccnc1`, for which the “hERG current change (%, negative = inhibition) at 1uM” value was 5.56%.

On to `O=C(NC(=S)N1CCCCCC1)c1ccccc1`, for which the “hERG current change (%, negative = inhibition) at 1uM” value is on record as 17.6%. Under `COC(=O)c1cc(S(=O)(=O)Nc2cc(OC)cc(OC)c2)c[nH]1` stands 17.7%; under `Cc1nnc(NC(=O)c2cccc(S(=O)(=O)N3CC(c4ccccc4)CC3=O)c2)s1` (stereo not shown), 2.8%.

Take `CCC(=O)N1CCc2cc(S(=O)(=O)CCC(=O)NCc3ccc(C)cc3)ccc21`: the “hERG current change (%, negative = inhibition) at 1uM” value is given as 15.1%. Under `COc1ccc(-n2ccnc(SCC(=O)NC3CCCC3)c2=O)cc1` stands -4.46%; under `Cn1cnnc1SCC(C)(C)NS(=O)(=O)c1ccc(Cl)cc1`, 26.4%. Take `CC(=O)N1CCOc2ccc(S(=O)(=O)NCCc3ccc(C)cc3)cc21`: the “hERG current change (%, negative = inhibition) at 1uM” value amounted to 10.1%.

`CC(C)(C)n1nnnc1C(c1cccnc1)N1CCN(c2ccccc2F)CC1` (stereo not shown): the “hERG current change (%, negative = inhibition) at 1uM” value was 15.7%. Next, `Cc1cc2oc(=O)cc(CN3CCCc4ccccc43)c2cc1C`: 12.9%. Take `Cc1ccc(-c2nc(CS(=O)(=O)CC(=O)NCc3ccc4c(c3)OCO4)c(C)o2)cc1`: the “hERG current change (%, negative = inhibition) at 1uM” value was found to be 5.42%. Next, `COc1ccc(OC)c(NC(=O)CSc2ncnc3c2cnn3-c2ccccc2Cl)c1`: 8.73%. Turning to `O=C(OCC(=O)N1CCCc2ccccc21)c1cc(S(=O)(=O)N2CCOCC2)ccc1F`, the “hERG current change (%, negative = inhibition) at 1uM” value stood at 8.04%. For `CCN(CC(=O)NCc1ccc(Cl)cc1)C(=O)/C=C/c1ccc(Cl)c([N+](=O)[O-])c1`, the “hERG current change (%, negative = inhibition) at 1uM” value is recorded as -29.6%. On to `COc1ccc(-n2c(SCC(=O)NNC(=O)c3ccc(C)cc3)nnc2-c2ccncc2)cc1`, for which the “hERG current change (%, negative = inhibition) at 1uM” value came to 1.58%. Next, `COc1ccc(CSCCc2n[nH]c(=S)n2-c2ccccc2)cc1C`: 13.7%. Next, `N#C/C(=C\c1ccccc1)C(=O)Nc1cc(S(=O)(=O)N2CCOCC2)ccc1N1CCCC1`: 4.4%; `CC(CCCC(C)(C)O)NCc1cn[nH]c1-c1ccc2c(c1)OCO2` (stereo not shown): 3.76%; `Cc1ccc(C(=O)OCc2nc(N)nc(Nc3ccccc3C)n2)cc1`: 18%. With `CN(C)N=Nc1ccc(S(=O)(=O)NC(=O)Cc2ccccc2)cc1`, the “hERG current change (%, negative = inhibition) at 1uM” value was 11.8%.

As for `O=C(CN1CCN(Cc2ccc(Cl)cc2)C1=O)NCc1cccs1`, the “hERG current change (%, negative = inhibition) at 1uM” value is given as -28.1%.

Turning to `CN1CCN(NC(=O)CSc2ccc(Cl)cc2Cl)CC1`, the “hERG current change (%, negative = inhibition) at 1uM” value was 11.9%. In the case of `C(=N\N(c1ccccc1)c1ccccc1)/c1ccccn1`, the “hERG current change (%, negative = inhibition) at 1uM” value was determined as 10.6%. Take `O=C(CCc1ccccc1)Nc1nn[nH]n1`: the “hERG current change (%, negative = inhibition) at 1uM” value was 7.19%.

Regarding `COc1ccc(C(=O)OCCCN(C)C)cc1OC`, the “hERG current change (%, negative = inhibition) at 1uM” value is -0.465%.

Consider `CCC(NC(=O)c1oc2ccccc2c1COC)c1ccc(OC)cc1` (stereo not shown), for which the “hERG current change (%, negative = inhibition) at 1uM” value was determined as 15.6%. Under `COCCSc1ccccc1C(=O)Nc1nnc(C)s1` stands 2.81%.

In the case of `O=C(Cc1cccs1)Nc1nnc(C2CC2)s1`, the “hERG current change (%, negative = inhibition) at 1uM” value is 14.2%. Next, `Cc1ccc(NC(=O)Cc2sc(C)nc2-c2ccc(C)cc2)cc1`: 8.6%; `O=C(C[n+]1ccn(CCCNP2(=O)C=C(c3ccccc3)OC(c3ccccc3)=C2)c1)c1ccccc1.[Br-]`: 4.27%; `COc1ccc(Cn2c(O)cc(=O)[nH]c2=O)cc1`: 14.4%.

`COc1cc(/C=N/NC(=O)c2cc(-c3cccc(OC(C)C)c3)nc3ccccc23)ccc1O`: the “hERG current change (%, negative = inhibition) at 1uM” value was -2.48%.

Regarding `CCCOCC1CC(CCc2nc(=S)[nH][nH]2)C(=O)O1` (stereo not shown), the “hERG current change (%, negative = inhibition) at 1uM” value worked out at 13.1%. As to `CCc1c(C(=O)OC)nnc2cc(C)nn12`, the “hERG current change (%, negative = inhibition) at 1uM” value is given as 13.5%. Next, `NC(=O)CN1C(=O)C(=O)N(Cc2ccc(F)cc2)C1=O`: 16.4%; `Cc1cccc2cc(CN(C(=O)c3cnccn3)C3CCCCC3)c(Cl)nc12`: 17.8%; `CCCOc1ccccc1/C=C1\SC(N2CCCCC2)=NC1=O`: 7.48%. Under `O=C1CC2(CCN(C(=O)C3CC(=O)N(c4ccc(F)cc4)C3)CC2)Oc2ccccc21` (stereo not shown) stands -73.6%; under `COc1ccc(S(=O)(=O)NC2CCCC2)cc1Br`, 8.08%; under `COc1ccc(C(C)=O)cc1CN1C(=O)NC2(CCCCC2C)C1=O` (stereo not shown), 3.83%.

`Nc1nc(-c2ccccc2)nn1C(=O)Cc1ccccc1`: the “hERG current change (%, negative = inhibition) at 1uM” value was found to be 14%. As for `O=C(CS(=O)(=O)c1cn(Cc2ccc(Cl)cc2)c2ccccc12)N1CCCCC1`, the “hERG current change (%, negative = inhibition) at 1uM” value turned out to be 14.4%. `O=C(NCc1ccco1)C1CCCN(S(=O)(=O)c2ccc(Cl)cc2)C1` (stereo not shown): the “hERG current change (%, negative = inhibition) at 1uM” value is listed as -5.62%. Under `O=C(Cn1nc(Cc2ccncc2)c2ccccc2c1=O)N1CCN(C(=O)c2ccco2)CC1` stands -2.41%; under `O=c1c2ccccc2nc(-c2ccccc2Cl)n1-c1cccc(O)c1`, 9.24%; under `Cc1cc(SCNC(=O)c2ccccc2)ncn1`, 8.84%.

As to `O=C(CSc1nnc(Cn2cnc3ccccc32)o1)c1ccccc1`, the “hERG current change (%, negative = inhibition) at 1uM” value came out at 9.46%. With `CN(C(=O)COC(=O)c1ccc2c(c1)OCCO2)c1ccccc1`, the “hERG current change (%, negative = inhibition) at 1uM” value came to 9.97%. Next, `COc1ccc(OC)c(C(=O)c2coc3ccc(O)c(CN(C)C)c23)c1.Cl`: 9.87%; `COc1ccc(CCNC(=O)c2cc3c(F)cccc3s2)cc1OC`: 5.74%; `O=C(NCC1CCN(Cc2ccccc2F)CC1)Nc1cc(F)ccc1F`: -32.1%.

On to `CCOC(=O)c1cccc(NC(=O)CCS(=O)(=O)c2cccs2)c1`, for which the “hERG current change (%, negative = inhibition) at 1uM” value was 2.43%.

Turning to `CCn1c(SCC(=O)Nc2ccc(OC)cc2OC)nc2nc3c(cc2c1=O)COC(C)(C)C3`, the “hERG current change (%, negative = inhibition) at 1uM” value was determined as 8.13%. Next, `COCC(=O)Nc1ccc(S(=O)(=O)Nc2ccccn2)cc1`: 21.6%; `COc1ccc(CCNC(=O)CSc2cc(=O)[nH]c(N)n2)cc1OC`: 7.12%. Next, `Cc1ccc2c(c1)C(=C(C#N)C#N)C(=O)N2CCN1CCCCC1`: 12.4%; `CCOCCCNC(=O)C(c1ccc(OC)cc1)N(Cc1ccc2c(c1)OCO2)C(=O)CNC(C)=O` (stereo not shown): 8.75%; `Cc1ccc(NC(=O)CCc2nnc3ccc(N4CCN(C)CC4)nn23)cc1F`: 5.81%. Next, `Cc1cc(N2C(=O)C(O)=C(C(=O)c3cc4ccccc4o3)C2c2ccc(Cl)cc2)no1` (stereo not shown): 1.55%. As for `COc1ccc(NC(=O)CN2CCN(c3ccc(C)cc3C)CC2)cc1`, the “hERG current change (%, negative = inhibition) at 1uM” value was 1.72%. Next, `Cc1ccc(-n2cc(CN3CCN(Cc4nccn4C)CC3)c(-c3ccc(F)cc3)n2)cc1`: 13.9%. Next, `CCC(c1nnnn1C1CCCC1)N1CCN(c2ccccc2)CC1` (stereo not shown): -0.0076%; `O=C(NC1CCCC1)C(c1cccs1)N(CC1CCCO1)C(=O)Cc1cccs1` (stereo not shown): 3.73%; `COc1ccc2[nH]cc(CC(=O)O)c2c1`: 10.7%. Under `COc1cc2ccc(=O)oc2cc1O` stands 15.7%. Turning to `Cc1cccnc1NC(=O)c1cccc(NC(=O)CC2SC(N3CCCCC3)=NC2=O)c1` (stereo not shown), the “hERG current change (%, negative = inhibition) at 1uM” value was 9.66%. Under `Cc1ccc2[nH]c3c(=O)n(N)c(C)nc3c2c1` stands 14.2%; under `CC(=O)C1=C(C)NC(=O)NC1c1ccc(Cl)cc1` (stereo not shown), 14.9%; under `O=[N+]([O-])c1cc2c(cc1CN1CCN(c3ccc(F)cc3)CC1)OCO2`, 7.89%. Turning to `COCCn1c(=O)c2c(nc3n2CCCN3CCc2ccccc2)n(C)c1=O`, the “hERG current change (%, negative = inhibition) at 1uM” value was -2.49%. For the compound `O=C1NC(=S)N(c2ccccc2)C(=O)/C1=C/c1ccco1`, the “hERG current change (%, negative = inhibition) at 1uM” value worked out at 5.88%. Under `CC(=O)Oc1cc(O)c2c(c1)OC(c1ccc(OC(C)=O)c(OC(C)=O)c1)C(OC(C)=O)C2=O` (stereo not shown) stands 6.57%; under `Cn1c(C(=O)N2CCCC(C(=O)NCCN3CCOCC3)C2)cc2sccc21` (stereo not shown), 7.87%. Under `CC(C)NC(=S)NNc1ncnc2sc3c(c12)CC(C)(C)OC3` stands 6.89%; under `CC(C)(C)OC(=O)NC(CO)c1cn([C@@H](Cc2cc3ccccc3[nH]2)C(=O)N2CCN(C(=O)OC(C)(C)C)CC2)nn1` (stereo partly shown), 4.76%; under `COC(=O)c1cccc(NC(=O)C(C)N2C(=O)c3ccccc3C2=O)c1` (stereo not shown), 11.2%. Under `COC(=O)C1=C(c2ccc(Cl)c(C(F)(F)F)c2)C[C@@H]2CC[C@H]1N2C(=O)NC(C)C` stands 10.9%.
